# Test results taken from the BET-seq Pho4 binding data (Le et al. 2018).
# Some of the results follow. The energies were worked out here from pooled read counts, against the library average; single values are noisy.
# Molecular target: T1, Pho4 (S. cerevisiae) (UniProt P07270)
# T1 sequence: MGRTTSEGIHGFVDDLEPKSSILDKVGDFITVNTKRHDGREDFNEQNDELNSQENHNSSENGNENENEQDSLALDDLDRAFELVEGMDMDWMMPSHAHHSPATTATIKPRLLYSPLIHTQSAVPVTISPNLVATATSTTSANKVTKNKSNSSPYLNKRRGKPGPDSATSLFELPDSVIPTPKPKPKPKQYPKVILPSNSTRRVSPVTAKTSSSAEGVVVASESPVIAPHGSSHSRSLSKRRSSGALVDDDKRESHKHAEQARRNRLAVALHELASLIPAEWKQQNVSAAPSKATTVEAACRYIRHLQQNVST
# Test: relative binding free energy (BET-seq); higher = weaker binding
# Settings: reference: library average
row,Sequence,relative binding free energy [kcal/mol]
1,ACAGGCACGTGGGGCG,-0.32
2,TGTTTCACGTGAGCGC,0.35
3,TTAAGCACGTGTGTAA,-0.02
4,AACTTCACGTGGAGGT,0.25
5,TACGTCACGTGTGTTG,0.28
6,ACATGCACGTGTGAGG,-0.03
7,CGGGACACGTGGGGTG,-0.15
8,GAGTACACGTGGGGAG,-0.06
9,AGTTGCACGTGATGCT,-0.03
10,TGAATCACGTGAGCGG,0.33
11,GGGGTCACGTGTCTAA,0.13
12,GTTGACACGTGGGTTC,-0.14
13,TGAAGCACGTGTTCGG,-0.26
14,TAGTGCACGTGCAGGT,-0.03
15,TAAGGCACGTGGGGTC,-0.17
16,GGTATCACGTGAGTGT,0.39
17,CGTGACACGTGGTGAG,0.09
18,GCATTCACGTGGTTAT,0.28
19,TAGTCCACGTGAGTGT,0.23
20,TTGATCACGTGGGAGC,-0.08
21,TGGAACACGTGAGCTA,0.53

row,Sequence,relative binding free energy [kcal/mol]
1,TGTAGCACGTGAAAGA,0.31
2,AAGTTCACGTGCTTTG,0.33
3,TTTGGCACGTGTCGAG,-0.09
4,AAGTGCACGTGTTGTC,-0.11
5,CTTTTCACGTGCTCGT,0.35
6,TGGGCCACGTGGACGG,-0.07
7,TAAGCCACGTGGTGGA,-0.1
8,CGTAACACGTGAGTGG,0.14
9,GGTATCACGTGACGTT,0.21
10,TTCGGCACGTGTCGGG,-0.05
11,TCATTCACGTGGGAGA,0.28
12,TCAGTCACGTGGGGTG,0
13,TTATGCACGTGAGCTG,0.11
14,CGCGTCACGTGGTGTG,-0.04
15,AAGCGCACGTGTGTGG,-0.09
16,CGGATCACGTGGGGCA,0.01
17,GGGCACACGTGGGATT,0.04
18,ATGGGCACGTGAATAT,0.01
19,GTTTGCACGTGTGGAA,0.19
20,TTAATCACGTGAAGTT,0.36
21,TATTCCACGTGGATGT,0.07

row,Sequence,relative binding free energy [kcal/mol]
1,GATCACACGTGGGGGT,-0.09
2,TATGGCACGTGTTGAA,-0.22
3,GAGGTCACGTGGTCTG,0.18
4,GCGCGCACGTGGTGAG,-0.22
5,TCTTACACGTGGTTTG,0.16
6,GAGTGCACGTGGATTA,0.12
7,GTCGACACGTGTGAGG,0.04
8,CTAGTCACGTGCGGTG,-0.15
9,AGTATCACGTGCTAGT,0.05
10,AGTTTCACGTGGTCGA,0.15
11,TATGTCACGTGCTGTG,0.02
12,TGATTCACGTGTACAG,0.32
13,AGATGCACGTGTGATA,0.04
14,TGGCACACGTGTATGA,0.1
15,TATATCACGTGTCGTG,0.03
16,ATTGGCACGTGGCTGC,-0.15
17,GGCCTCACGTGTGGTT,0.22
18,CCGTGCACGTGGGGTA,-0.23
19,TTCTGCACGTGGTTTA,0.15
20,TGGTGCACGTGGTCAA,-0.41
21,GCTCGCACGTGTGGTT,0.1
